Laboratory results taken from PubChem BioAssay AID485281 (National Center for Advancing Translational Sciences (NCATS), 2010).
The campaign covered roughly 350,000 compounds. About 260 (0.074%) were called active. This list was built around the results that the source calls inconclusive (neither active nor inactive); the mix of calls is not that of the screen. The call rests on the fitted dose curve; in most records, active means well fitted inhibition curve with a large enough effect; inconclusive means small, poorly fitted or top-dose-only effect; inactive means no such curve, though single readings can be large or run the other way. A potency beside an inconclusive call is a rough fit, not a confirmed value.

target: Ferritin light chain (Equus caballus) (UniProt P02791); assay: qHTS Assay for Identification of Novel General Anesthetics; settings: apoferritin/1-aminoanthracene competitive binding, fluorescence; activity change, negative = displacement: at 77.5 µM (top of the series); further: nearly all actives have a fitted effect of over 20% in size
Sequence of UniProt P02791 (P02791 whole entry, looked up): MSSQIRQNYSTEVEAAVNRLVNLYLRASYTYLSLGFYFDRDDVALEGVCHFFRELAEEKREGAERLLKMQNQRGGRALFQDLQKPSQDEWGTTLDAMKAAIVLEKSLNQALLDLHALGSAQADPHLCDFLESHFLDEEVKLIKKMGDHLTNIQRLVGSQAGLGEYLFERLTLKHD
Procedure, shortened: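 10 uM apoferritin + 50% sat. 1-AMA, PBS; cpd 10 min RT; Ex380/Em535 endpoint; normalized to free probe vs complex; 4-param Hill fit; propofol titration as pos. ctrl.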
On the % scale 0 is the no-effect control and ±100 the full control effect; potency means the concentration at half of the fitted maximal effect; tags describe the fitted curve by direction and shape.

Row | SMILES | activity change, negative = displacement | Potency
1 | COc1ccc2[nH]c3c(c2c1)CCN1C(=O)N([C@@H](C)C(=O)NC2CC2)C(=O)[C@]31C | inactive: -12% | –
2 | O=C(CCCSc1nc2ccccc2[nH]1)N1CCN(c2ccccc2)CC1 | – | inconclusive: 31.6 µM [inhibitor, partial curve]
3 | CC(C)=CCC/C(C)=C/CC/C(C)=C/CC/C(C)=C/C(=O)O | – | inconclusive: 50.1 µM [inhibitor, single point]
4 | O=C(CCC(=O)NC1CCCCCC1)Nc1nnc(C(F)(F)F)s1 | – | inconclusive: 7.94 µM [inhibitor, partial curve]
5 | O=C(CCCN1C(=O)c2ccccc2C1=O)Oc1ccc(Cl)cc1 | – | inconclusive: 39.8 µM [inhibitor, partial curve]
6 | O=C(Nc1nccs1)NC1CCCCC1 | – | inconclusive: 56.2 µM [inhibitor, single point]
7 | CC(C)c1cc(C(F)(F)F)n2nc(C(=O)Nc3ccc4c(c3)OCO4)cc2n1 | – | inconclusive: 35.5 µM [inhibitor, partial curve]
8 | Cc1cccc(CSc2nnc(NC(=O)CSc3nnc(C)s3)s2)c1 | – | inconclusive: 12.6 µM [inhibitor, partial curve]
9 | Cc1ccc(/C=C(\NC(=O)c2ccc(C)cc2)c2nc(=S)[nH][nH]2)cc1 | – | inconclusive: 28.2 µM [inhibitor, partial curve]
10 | Cc1ccc(S(=O)(=O)Nc2ccc(NC(=O)Nc3cccc(C(F)(F)F)c3)cc2)cc1 | – | inconclusive: 28.2 µM [inhibitor, partial curve]
11 | Cc1cc(C(=O)CSc2nc3ccccc3c(=O)[nH]2)c(C)n1C | inactive: -7.43% | –
12 | O=S(=O)(c1cccs1)N1CCCc2cccc(O)c21 | – | inconclusive: 50.1 µM [inhibitor, single point]
13 | COc1ccc(C2CC(=O)N3CN(c4ccc(C)c(Cl)c4)CSC3=C2C#N)cc1 (stereo not drawn) | – | inconclusive: 35.5 µM [inhibitor, partial curve]
14 | Cc1c(NC(=O)Nc2ccc(F)cc2F)c(=O)n(-c2ccccc2)n1C | – | inconclusive: 22.4 µM [inhibitor, partial curve]
15 | CC(C)c1ccc(N2CC(C(=O)Nc3nccs3)CC2=O)cc1 (stereo not drawn) | – | inconclusive: 50.1 µM [inhibitor, partial curve]
16 | CS(=O)(=O)NCCSCc1c(Cl)cccc1Cl | – | inconclusive: 35.5 µM [inhibitor, partial curve]
17 | COc1ccc(CNC(=O)COc2cc3c(c4oc(=O)cc(C)c24)CCC(C)(C)O3)cc1OC | – | inconclusive: 14.1 µM [inhibitor, partial curve]
18 | O=C(CN1CCN(c2ccccc2F)CC1)Nc1ccccc1F | inactive: -12.2% | –
